Source: PMC7282669, “The hydrophobic effect characterises the thermodynamic signature of amyloid fibril growth” (PLoS Computational Biology, 2020)

Target: the molecule itself
Assay: ITC; fibril elongation; monomer titrated into sonicated seed fibril suspension; VP-ITC; 10 mM HCl, 1 mM Na2SO4; monomer 70-300 μM; several temperatures

B1: Human glucagon (peptide)
chain: not shown
notes: Monomer and sonicated seed fibrils, studied under two sets of solution conditions; source: a kind gift from Novo Nordisk
Does B1 bind?
Result: binds
